One data set concerns 22Rv1 cells. Nature of the data set: Cytotoxicity assay (CellTiter-Glo 2.0) in 22Rv1. The class given is cell-based, human. Here is the method:
(§1) The cytotoxicity assays were designed to determine whether LO11 and LO14 TOP1i ADCs could reduce the cell viability of STEAP2 expressing prostate cancer cell lines. The assay relies on the principle that dying cells will produce less adenosine triphosphate (ATP). […] The bioluminescent signal was detected using standard plate-reading methods (SpectraMax M5). Briefly, 24 hours prior to starting the assay, human prostate cancer cells were harvested and counted described above. […] Fifty microliters of each dilution was added to the designated wells and cells were incubated for 5. After removing the treatment media, 50 microliters of RPMI1640 media without Phenol Red and 50 microliters of CTG2.0 (Promega) was added to each well. Plates were incubated for 20 minutes and then transferred to the SpectraMax M5 for luminescence detection.

The nature of data set [1]: Pharmacokinetics in FcRn humanized mice. It is filed as in vivo. Particulars: single 5 mpk IV. Here is the method: (§2) A study was designed to characterize the pharmacokinetics (PK) properties of LO14 unconjugated antibody, DAR4, and DAR8 TOP1i ADCs in mice. Four to six week old male immunodeficient (athymic nude, NOD Scid Gamma) or humanized mice (FcRn) were administered a single dose 5 milligrams per kilogram (mpk) intravenous injection of test reagent. Animals were monitored and 100-200 microliters of blood was collected at each timepoint (n=9 timepoints between 0 to 21 days post injection). The mice for each test group (n=9) were distributed among three cohorts to enable 6 survival bleeds and 3 terminal bleeds over the course of the study. Standard ELISA and Mass Spectrometry methods were used to quantify plasma concentration (ug/mL) of each test article over time. A standard 2 compartment model was fit to the pooled data from all the mice on study. All the individual datapoints are utilized but assuming that there is no inter-animal variability in any of the parameters (naive pooled approach). The 2 compartment model was used to calculate drug clearance (C1), the apparent volume of distribution at steady state (Vss), and half-life (T1/2).

A further data set has as its system LNCaP cells. Nature of the data set: Cytotoxicity assay (CellTiter-Glo 2.0) in LNCaP. It is filed as cell-based, human. Here is the method:
as §1
A general note: In ATP-based viability assays light output follows the ATP content of the culture.

Another data set relates to 018-73LuCaP. As to the kind of experiment: In vivo efficacy, 73LuCaP patient-derived xenograft. Details: species or system NSG mice. Here is the method:
(§3) Cell lines or tumor tissue fragments were implanted subcutaneously into male NSG mice between 6 to 8 weeks of age. When tumors reached the appropriate tumor volume range (150-300 mm^3), animals were randomized into treatment and control groups (n=5 animals/group) and dosing was initiated. A single dose of test article was administered to the tumor-bearing mice via intravenous injection. Animals were observed daily, and tumor dimensions and body weight were measured and recorded twice weekly. Tumor volumes were measured by digital caliper and the volumes of tumors were calculated using the following formula: tumor volume=[length (mm)×width (mm)^2×0.52, where the length and width are the longest and shortest diameters of the tumor, respectively.
(§4) Monotonic (always decreasing) generalized additive model (GAM) spline curves were fit to the dose response data to illustrate the statistical difference between the effects of LO14 TOP1i DAR4 and DAR8 ADCs across the tested CDX and PDX models (FIG. 8E).
(§5) • DAR4.Ix50/DAR8.Ix50 refers to the best fit value of the lambda, wherein best is based on the r-squared value. • Diff is the difference in relative growth rate between DAR4 and DAR8. • SE=standard error

The test system of a further data set is C42 model. As to the kind of experiment: In vivo efficacy, C42 cell-derived xenograft. Details: species or system NSG mice. Here is the method: as §3, §4, §5
The next data set deals with LUCAP147 PDX model. Nature of the data set: In vivo efficacy, LUCAP147 patient-derived xenograft. On the set-up: species or system NSG mice. Here is the method: as §3, §4, §5
On the technique in general: Xenograft models place foreign cells or tissue in a host animal.

Data set [2] in a line: Pharmacokinetics in NSG mice. It is filed as in vivo. Conditions: single 5 mpk IV. Here is the method: as §2
Data set [3] deals with 19 different human prostate PDX models. As to the kind of experiment: Therapeutic activity in 19 prostate patient derived xenografts. It is filed as in vivo, NSG mice. Particulars: models with median response from baseline of −30% or lower. Here is the method: Tumor tissue fragments were implanted subcutaneously into male NSG mice between 6 to 8 weeks of age. When tumors reached the appropriate tumor volume range, tumors were resected and expanded into a cohort of study animals. When the tumors in the study animals reached the appropriate tumor volume (150-300 mm^3), animals were randomized into treatment and control groups (n=3 animals/group) and dosing was initiated. A single dose of test article was administered and animal body weights and tumor volumes were recorded as described above. The results shown in FIGS. 9A-9B are sorted in descending order of median response from baseline.
The PDX models evaluated in FIGS. 9A-9B represent tumor material from 19 distinctly different patients. […] When administered at 5 mpk, LO14 TOP1i DAR8 ADC has an ORR of 57.9% (11/19) in comparison to the 5% (1/19) ORR with Isotype ADC administered at an equivalent dose (FIG. 9A). When administered at 2.5 mpk, LO14 TOP1i DAR8 ADC has an ORR of 47.4% (9/19) in comparison to the 5% (1/19) ORR with Isotype ADC administered at an equivalent dose (FIG. 9B).

A further data set concerns LUCAP70 PDX model. As to the kind of experiment: In vivo efficacy, LUCAP70 patient-derived xenograft. On the set-up: species or system NSG mice. Here is the method: as §3, §4, §5
For the next data set, the system named is C42 cells. Nature of the data set: Cytotoxicity assay (CellTiter-Glo 2.0) in C42. The class given is cell-based, human. Here is the method:
as §1

Another data set relates to 22Rv1 model. Nature of the data set: In vivo efficacy, 22Rv1 cell-derived xenograft. Details: species or system NSG mice. Here is the method: as §3, §4, §5
Data set [4] is described as follows: Pharmacokinetics in Athymic Nude mice. Particulars: single 5 mpk IV. The class given is in vivo. Here is the method: as §2
Data set [5] concerns LNCAP STEAP2 CRSPR 2X KO cells. Nature of the data set: Cytotoxicity assay (CellTiter-Glo 2.0) in STEAP2 knock-out line. The class given is cell-based, human. Here is the method:
as §1

B1: LO14 TOP1i DAR8 ADC: 40A3-LO14 conjugated via cleavable mal-PEG8-val-ala linker to a TOP1i warhead (SG3932), DAR 8 (conjugate)
heavy: QVQLQQSGPGLVKPSQTLSLTCAISGDSVSRNSAVWNWIRQSPSRGLEWLGRTYYRSKWYNDYAPSVKSRITINPDTSKNQFSLQLNSVTPEDTAVYYCARGLRQNQFYYYMDVWGKGTTVTVSSASTKGPSVFPLAPSSKSTSGGTAALGCLVKDYFPEPVTVSWNSGALTSGVHTFPAVLQSSGLYSLSSVVTVPSSSLGTQTYICNVNHKPSNTKVDKRVEPKSCDKTHTCPPCPAPEFEGGPSVFLFPPKPKDTLMISRTPEVTCVVVDVSHEDPEVKFNWYVDGVEVHNAKTKPREEQYNSTYRVVSVLTVLHQDWLNGKEYKCKVSNKALPASIEKTISKAKGQPREPQVYTLPPSREEMTKNQVSLTCLVKGFYPSDIAVEWESNGQPENNYKTTPPVLDSDGSFFLYSKLTVDKSRWQQGNVFSCSVMHEALHNHYTQKSLSLSPGK
light: EIVMTQSPATLSVSPGERATLSCRASQSVASNLAWYQQKPGQAPRLLIYGASTRATGIPARFSGSGSGTEFTLTISSLQSEDFAVYYCQQYNNWPFTFGPGTKVDIKRTVAAPSVFIFPPSDEQLKSGTASVVCLLNNFYPREAKVQWKVDNALQSGNSQESVTEQDSKDSTYSLSSTLTLSKADYEKHKVYACEVTHQGLSSPVTKSFNRGEC
B1: the “cytotoxic effect on cell viability, in words (22Rv1)” value in the data set with 22Rv1 cells is listed as “dose-dependent decrease in cell viability”. For the same molecule, the T1/2 in data set [1] turned out to be 8.8 days; in data set [2] it was 12.6 days; in data set [4], 12.2 days. Besides, the figures for the Vss in data set [1], in data set [2] and in data set [4] were 0.126 L/kg, 0.104 L/kg and 0.126 L/kg, respectively. The “Cl (clearance)” value in data set [1] (2 compartment model) was 10.7 mL/day/kg; in data set [2] (2 compartment model), 6 mL/day/kg; in data set [4] (2 compartment model) it was 7.6 mL/day/kg. For the same molecule, in the data set with LNCaP cells, the “cytotoxic effect on cell viability, in words (LNCaP)” value was “dose-dependent decrease in cell viability”. For the same molecule, the “Diff (difference in relative growth rate between DAR4 and DAR8)” value in the data set with 018-73LuCaP was −0.05; with C42 model (015-C42, Day Range 0-40), −0.56; with LUCAP147 PDX model (017-147LuCaP), −0.05; in the data set on LUCAP70 PDX model (019-70LuCaP), −0.05; in the data set with 22Rv1 model (014-22Rv1, Day Range 0-21) it was −4.49. Also, the “Ix50 (best fit value of the lambda, GAM dose response of relative tumor growth rate)” value in the data set on 018-73LuCaP stood at 0.12; with C42 model (015-C42, Day Range 0-40), 0.93; in the data set with LUCAP147 PDX model (017-147LuCaP), 0.27; with LUCAP70 PDX model (019-70LuCaP) it was 0.15; in the data set with 22Rv1 model (014-22Rv1, Day Range 0-21), 5.34. For the same molecule, the “dose as low as which significant tumor regression was observed” value in the data set with C42 model (C42 model, single IV dose) was 1 mpk. For the same molecule, the “dose as low as which significant tumor regressions were observed” value turned out to be 1 mpk in the data set on LUCAP147 PDX model (LUCAP147 PDX, single IV dose) and 1 mpk in the data set on LUCAP70 PDX model (LUCAP70 PDX, single IV dose). Besides, the figures for the “Overall response rate (ORR)” value in [3] (2.5 mpk single IV dose) and in data set [3] (5 mpk single IV dose) were 47.4% and 57.9%, respectively. Further, the “cytotoxic effect on cell viability, in words (C42)” value with C42 cells is reported as “dose-dependent decrease in cell viability”. Besides, in the data set with 22Rv1 model (22Rv1 model, single IV dose), the “dose at which significant tumor regression was achieved” value was 3 mpk.

B2: LO11 TOP1i ADC (conjugate)
heavy: QVQLQQSGPGLVKPSQTLSLTCAISGDSVSRNSAVWNWIRQSPSRGLEWLGRTYYRSKWYNDYAPSVKSRITINPDTSKNQFSLQLNSVTPEDTAVYYCARGLLQNQFYYYMDVWGKGTTVTVSSASTKGPSVFPLAPSSKSTSGGTAALGCLVKDYFPEPVTVSWNSGALTSGVHTFPAVLQSSGLYSLSSVVTVPSSSLGTQTYICNVNHKPSNTKVDKRVEPKSCDKTHTCPPCPAPEFEGGPSVFLFPPKPKDTLMISRTPEVTCVVVDVSHEDPEVKFNWYVDGVEVHNAKTKPREEQYNSTYRVVSVLTVLHQDWLNGKEYKCKVSNKALPASIEKTISKAKGQPREPQVYTLPPSREEMTKNQVSLTCLVKGFYPSDIAVEWESNGQPENNYKTTPPVLDSDGSFFLYSKLTVDKSRWQQGNVFSCSVMHEALHNHYTQKSLSLSPGK
light: EIVMTQSPATLSVSPGERATLSCRASQSVASNLAWYQQKPGQAPRLLIYGASTRATGIPARFSGSGSGTEFTLTISSLQSEDFAVYYCQQYNNWPFTFGPGTKVDIKRTVAAPSVFIFPPSDEQLKSGTASVVCLLNNFYPREAKVQWKVDNALQSGNSQESVTEQDSKDSTYSLSSTLTLSKADYEKHKVYACEVTHQGLSSPVTKSFNRGEC
On to B2, for which the “cytotoxic effect on cell viability, in words (isogenic STEAP2 KO line)” value in data set [5] was “lack of cytotoxic effect”.

By Vss is commonly meant the apparent volume that relates the amount in the body to the concentration in plasma or blood. Low readings indicate little distribution into tissue, high ones wide distribution into tissue.

Values taken from US20250041435A1, “STEAP2 ANTIBODY DRUG CONJUGATES AND USES THEREOF” (MedImmune, LLC, priority 2023, published 2025).
